Results: PubChem BioAssay AID1346428 (National Center for Advancing Translational Sciences (NCATS), 2018)
Screen size: about 48,000 compounds; about 1,200 (2.5%) were called active. Another 2% or so got no clear call; they are omitted.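 Rule for the calls: active = activation of at least 60% and not above a set upper limit (about 1 call in 100 departs from these limits); inconclusive = activation of 40% to 60%, or above that upper limit; inactive = activation under 40%.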 This is one part of the list.
Note: 0% is about no effect.

The molecules below were run against Probable G-protein coupled receptor 32 (Homo sapiens) (UniProt O75388) (assay: qHTS for Agonists of Human Resolvin D1 Receptor DRV1). Conditions: CHO-K1 GPR32 beta-arrestin PathHunter luminescence, 90 min; at 76.9 µM; stronger effect = higher value; zero percent set by DMSO-only wells.
Sequence of UniProt O75388 (O75388 whole entry, looked up): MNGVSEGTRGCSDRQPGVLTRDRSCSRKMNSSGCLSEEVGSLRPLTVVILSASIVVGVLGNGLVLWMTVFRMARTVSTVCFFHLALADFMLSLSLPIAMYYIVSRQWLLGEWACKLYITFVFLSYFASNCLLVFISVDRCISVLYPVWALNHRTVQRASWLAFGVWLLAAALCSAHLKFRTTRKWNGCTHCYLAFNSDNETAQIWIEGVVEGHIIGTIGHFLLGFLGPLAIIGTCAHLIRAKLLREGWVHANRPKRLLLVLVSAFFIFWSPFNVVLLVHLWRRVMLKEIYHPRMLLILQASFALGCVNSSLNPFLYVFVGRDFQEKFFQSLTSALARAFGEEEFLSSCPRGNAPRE
Method in brief: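 Cells are plated overnight, treated with compounds in DMSO for 90 minutes at 37 °C, and developed with PathHunter detection reagent for 1 hour before luminescence is read; signal reflects beta-arrestin binding to GPR32 in engineered CHO-K1 cells.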
In the case of `CSC1=NC2(CCN(C(=O)NC3CCCCC3)CC2)N=C1c1ccc(C)c(C)c1`, the activation is reported as inactive: 14.7%. For `Cc1ccc(CNC(=O)CC(C)S(=O)(=O)c2cc3c(cc2C)NC(=O)CO3)cc1` (centres undefined), the activation was inactive: -9.02%. With `O=C(Nc1sc2c(c1C(=O)NCc1ccco1)CCCC2)c1cc(=O)c2ccccc2o1` the activation was inactive: 0.1%. With `COc1ccc(Br)cc1CNC(=O)c1cc2n(n1)CCCN(Cc1ccc(C)cc1)C2=O` the activation was inactive: -17%. `Cc1ccc(C)c(NC(=O)CN2C(=O)C(C)(C)c3ccccc32)c1` was tested, and the activation was inactive: -7.26%. In the case of `CCc1ccc(CN(Cc2ccco2)c2cnc(S(C)(=O)=O)nc2C(=O)Nc2ccccc2Cl)cc1`, the activation is reported as inactive: -16.6%. With `CCc1nnc(SC(CC)C(=O)Nc2cccc(OC)c2)c2cc3oc(C)cc3n12` (centres undefined) the activation was inactive: -28.2%. With `Cc1ccc(Sc2c(C)nn(C(C)(C)C)c2OC(=O)C(C)(C)C)cc1` the activation was inactive: 4.46%. For `Fc1ccc(Nc2c3c(nc4ccccc24)CCC3)cc1`, the activation was inactive: 34.3%. For `COC(=O)c1scc(-c2ccc(C)cc2)c1S(=O)(=O)N1CCN(c2cccc(OC)c2)CC1`, the activation was inactive: -5.12%. With `CCOC(=O)c1ccc(NC(=O)CC2C(=O)OCCN2CC)cc1` (centres undefined) the activation was inactive: 24.3%. With `O=C(NCc1ccco1)c1ccc2c(c1)N(Cc1ccc(Cl)cc1)C(=O)c1ccccc1S2=O` (centres undefined) the activation was inactive: -11.1%. With `CCN(c1ccccc1)c1nnc(NC(=O)Nc2ccccc2F)s1` the activation was inactive: -1.6%. `CCN(C(=O)C1CCCN(S(=O)(=O)c2c(C)noc2/C=C/N(C)C)C1)c1cccc(C)c1` (centres undefined) was tested, and the activation was inactive: -34.7%. With `COc1ccc(NC(=O)C2=C(C)Nc3nc(SCc4ccccc4C)nn3C2c2cc(OC)c(O)c(OC)c2)cc1` (centres undefined) the activation was inactive: -1.07%. `Cc1ccc(-n2ncc(C(=O)NCc3cccs3)c2C2CCN(C(=O)OC(C)(C)C)CC2)c(C)c1` was tested, and the activation was inactive: -0.841%. With `CCC(Sc1nc2cc(OC)c(OC)cc2c2nc(-c3ccccc3)nn12)C(=O)Nc1cccc(C)c1` (centres undefined) the activation was inactive: 9.37%. `O=C(NCc1ccccc1Cl)c1ccc(CSCc2ccccc2Cl)o1` was tested, and the activation was inactive: -30.1%. For `COc1ccc(OC)c(NC(=O)CSc2nnc3ccc4ccccc4n23)c1`, the activation was inactive: 3.17%. `Cc1ccc(CSc2nnc(CCNC(=O)OC(C)(C)C)o2)cc1` was tested, and the activation was inactive: 15.2%. With `COc1ccc(NC(=O)CCn2c(=O)c3cccn3c3cccnc32)c(OC)c1` the activation was inactive: -12%. `CCC(C(=O)NCc1ccccc1)n1nc(C)c2sc3ccccc3c2c1=O` (centres undefined) was tested, and the activation was inactive: -10.3%. With `COc1ccccc1OC(C)C(=O)Nc1ccc(-c2nc3ccccc3s2)cc1` (centres undefined) the activation was inactive: -7.75%. For `CCc1ccc(NC(=O)CCn2nc(-c3ccccc3OC)c3c(C)cc(C)nc32)cc1`, the activation was inactive: -6.61%. With `Cc1ccc(-c2nnc(Nc3cccc(O)c3)c3ccccc23)cc1S(=O)(=O)N1CCOCC1` the activation was inactive: 32.5%. `COc1ccc(-c2noc(CC(=O)Nc3ccc(F)cc3F)n2)cc1` was tested, and the activation was inactive: -11.4%. With `CN(Cc1ccccc1)C(=O)Nc1ccc2c(c1)N(C)C(=O)c1ccccc1S2` the activation was inactive: -22.7%. For `c1ccc(Nc2c(-c3c[nH]c4ccccc34)nc3ccccn23)cc1`, the activation was inactive: -18.2%. In the case of `COc1ccc(-c2cc(C(=O)OC(C)C(=O)c3ccccc3)c3cccc(Cl)c3n2)cc1` (centres undefined), the activation is reported as inactive: 0.735%. With `Cc1ccc2nc(N3CCC(C(=O)N4CCN(c5cccc(Cl)c5)CC4)CC3)[nH]c2c1` the activation was inactive: 4.22%. `CC(C)CCOC(=O)c1ccc(N(C)C)cc1` was tested, and the activation was inactive: -18.6%. With `CCOCCCNC(=O)C(c1ccc(C)cc1)N(Cc1ccc2c(c1)OCO2)C(=O)c1ccc(NC(C)=O)cc1` (centres undefined) the activation was inactive: -3.96%. For `CCC(C)NC(=O)c1ccccc1NC(=O)CN1C(=O)c2cccc3cccc1c23` (centres undefined), the activation was inactive: -13.1%. In the case of `CC(C)Nc1ccc(-c2nc(-c3ccco3)no2)cc1[N+](=O)[O-]`, the activation is reported as inactive: -9.46%. With `Cc1ccc(C2c3[nH]c4ccccc4c3CCN2C(=O)c2cccc(C)c2)cc1` (centres undefined) the activation was inactive: -40%. With `CC1CC(OC(=O)C(O)c2ccccc2)CC(C)(C)N1C` (centres undefined) the activation was inactive: 12.8%. `Cc1cccc(OCC(=O)Nc2ccc(Cl)c(-c3nc4ncccc4o3)c2)c1C` was tested, and the activation was inactive: 9.91%. With `COc1cc2cc(CNc3ccc(C)cc3)c(=O)n(CC(=O)Nc3ccc(F)cc3F)c2cc1OC` the activation was inactive: -37%. For `CC(C)NC(=O)CN1C(=O)COc2ccc(S(=O)(=O)N3CCCCCC3)cc21`, the activation was inactive: -6.12%. In the case of `CCOC(=O)c1c(C)[nH]c(CCC(=O)Nc2ccc(C)c(F)c2)c1C`, the activation is reported as inactive: -4.53%. In the case of `COc1cc(C(=O)NCC(c2cccs2)S(=O)(=O)c2ccc(F)cc2)cc(OC)c1OC` (centres undefined), the activation is reported as inactive: 13.3%. `Cc1cccc(NC(=O)c2nnn(CC(=O)Nc3ccc(C(C)C)cc3)c2N)c1C` was tested, and the activation was inactive: -6.95%. With `CCN(CCCNC(=O)c1cc2c(=O)n(CC)c3ccccc3c2s1)c1ccccc1` the activation was inactive: 4.81%. For `COCCCNC(=O)c1c(NC(=O)Cc2coc3cc(C)cc(C)c23)sc2c1CCCC2`, the activation was inactive: -5.85%. In the case of `COc1ccc(OC)c(CNC(=O)Cc2ccc(NC(=O)N3CCCCc4ccccc43)cc2)c1`, the activation is reported as inactive: 12.7%. In the case of `CCc1ccc(CNC(=O)CSc2cc(=O)n(C)c3ccc(Cl)cc23)cc1`, the activation is reported as inactive: 23.1%. In the case of `O=C(c1ccc2c(c1)N(Cc1ccccc1F)C(=O)c1ccccc1S2(=O)=O)N1CCCC1`, the activation is reported as inactive: -2.07%. For `COc1ccc(-c2cc(-c3ccccc3)nc(SCC(=O)CC(=O)OC(C)C)c2C#N)cc1`, the activation was inactive: 47.4%. For `CC(NC(=O)CCSCc1ccccc1F)c1ccccc1` (centres undefined), the activation was inactive: -20.8%. For `Cc1cc(F)ccc1NCc1ccccc1-c1nnc(-c2ccccc2Cl)o1`, the activation was inactive: -15.2%. For `O=C(NCC(c1cccnc1)N1CCc2ccccc21)c1cccc(C(F)(F)F)c1` (centres undefined), the activation was inactive: -30.3%. `COc1ccc(C(=O)N(Cc2cc(OC)c(OC)c(OC)c2)CC2CCCO2)cc1` (centres undefined) was tested, and the activation was inactive: -16.2%. With `COc1ccc(CCCc2nnc(SCC(=O)Nc3ccc(C)cc3C)o2)cc1` the activation was inactive: 23.4%. For `CCN(CC)S(=O)(=O)c1cc(-c2onc(C)c2C)ccc1OC`, the activation was inactive: -8%. For `CCCNC(=O)CSc1nc2nc(C)c(Cc3ccccc3Cl)c(C)n2n1`, the activation was inactive: -23.2%. `Cc1ccc(-c2noc(-c3nnn(CC(=O)Nc4cc(C)cc(C)c4)c3N)n2)cc1` was tested, and the activation was inactive: 0.1%. For `O=C(CSc1nccn1Cc1ccc(F)cc1)Nc1ccc2c(c1)OCCO2`, the activation was inactive: -14.5%. `CCc1ccc(C(=O)c2cn(CC(=O)Nc3ccc(OC)cc3OC)c3ccc(CC)cc3c2=O)cc1` was tested, and the activation was inactive: 0.316%. `O=C(NCc1cccc(Cl)c1)C1CCN(C(=O)c2sccc2-n2cccc2)CC1` was tested, and the activation was inactive: -15.6%. `COc1cccc(C(=O)Nc2cccc(C(=O)OCc3cc(=O)n4nc(C(C)C)sc4n3)c2)c1` was tested, and the activation was inactive: -8.6%. In the case of `Cc1ccc(N(C)C(=O)c2cnc(N3CCOCC3)c3ccccc23)cc1C`, the activation is reported as inactive: -16.6%. In the case of `CC(=O)N1CCC(N(C(=O)Nc2c(F)cccc2F)C(C)C)CC1`, the activation is reported as inactive: 9.13%. In the case of `COc1cc(C(=O)Nc2ccc3nc(SCc4ccccc4)sc3c2)cc(OC)c1OC`, the activation is reported as inactive: -8.91%. `COc1ccccc1/C=C/c1nc(C#N)c(N(C)C)o1` was tested, and the activation was inactive: 4.22%. In the case of `Cc1c2cnn(CC(=O)Nc3cccc(C(F)(F)F)c3)c(=O)c2c(C)n1Cc1ccccc1Cl`, the activation is reported as inactive: -3.51%. In the case of `CCOC(=O)N1CCc2c(sc3c2c(=O)n(-c2ccc(CC)cc2)c(=O)n3CC(=O)c2ccc(F)cc2)C1`, the activation is reported as inactive: -13.8%. For `Cc1c2cnn(CC(=O)NC(C)C)c(=O)c2c(C)n1Cc1ccccc1Cl`, the activation was inactive: -2.01%. For `CCC(Sc1nncn2c1cc1occc12)C(=O)Nc1ccc(C)c(Cl)c1` (centres undefined), the activation was inactive: -15.1%. In the case of `CCN(C(=O)CSc1nc2ccccc2n1Cc1cc(C)ccc1C)c1ccccc1`, the activation is reported as inactive: 0.779%. In the case of `COc1cccc(N2CCN(C3C(=O)c4ccccc4N3C(C)=O)CC2)c1` (centres undefined), the activation is reported as inactive: -37.6%. In the case of `COc1cccc(C2C(C(=O)Nc3ccc(C)cc3C)=C(C)Nc3c(C(=O)Nc4cccc(C)c4)cnn32)c1OC` (centres undefined), the activation is reported as inactive: -11.2%. For `CCOc1ccc(OCC)c(NC(=O)CN(C)S(=O)(=O)c2ccc3c(c2)CCCC(=O)N3)c1`, the activation was inactive: -19.7%. `Cc1nnc(NS(=O)(=O)c2ccc(N)cc2)s1` was tested, and the activation was inactive: 10.6%. For `O=C(Cn1nc(-c2ccc(Cl)cc2)ccc1=O)NCc1ccccc1Cl`, the activation was inactive: -2.28%. `Cc1cccc(OCC(=O)N(Cc2sccc2C)C2CCS(=O)(=O)C2)c1` (centres undefined) was tested, and the activation was inactive: -7.72%. In the case of `CCCNC(=O)C1CCC(Cn2c(=O)c3sccc3n(CC(=O)N3CCC(C)CC3)c2=O)CC1` (centres undefined), the activation is reported as inactive: -2.91%. With `COc1ccc(N2CCN(C(=O)c3ccc(-c4nc(COc5ccccc5)c(C)o4)cc3)CC2)cc1` the activation was inactive: -0.295%. For `COc1ccc(N2CCN(C(=O)c3nc(SC)ncc3Cl)CC2)cc1`, the activation was inactive: 0.787%. `COc1ccc(C(C)C)cc1S(=O)(=O)NCCc1c(C)[nH]c2ccc(C)cc12` was tested, and the activation was inactive: -14.3%. With `CC(C)(C)OC(=O)N1CCC(c2c(C(=O)N3CCc4ccccc4C3)cnn2-c2ccc(F)cc2)CC1` the activation was inactive: -8.96%. In the case of `Cc1ccccc1OCCn1c(CCNC(=O)C(C)(C)C)nc2ccccc21`, the activation is reported as inactive: -12.6%. For `CC1=C(c2ccc(C)c(C)c2)S(=O)(=O)N=C1N1CCC(C(=O)NCc2ccc(C)o2)CC1`, the activation was inactive: 4.04%. With `CCc1ccc(CNC(=O)c2ccc(-c3nc(CS(=O)(=O)c4ccccc4)c(C)o3)cc2)cc1` the activation was active: 84.3%. In the case of `Cc1coc2c(C)c3oc(=O)c(CCC(=O)NCCc4ccc(Cl)cc4)c(C)c3cc12`, the activation is reported as inactive: -16.6%.
